Assay results published in publication PMC9911399, “Two distinct binding modes provide the RNA-binding protein RbFox with extraordinary sequence specificity”.
Where a chain is given by its changes, count along the chain named. The list shows a part of the results.

T1: RBFOX1 RRM RbFoxmut (Fox-RRM*) (Homo sapiens, UniProt Q9NWB1 109-208, R118D;E147R;N151S;E152T)
T1 sequence: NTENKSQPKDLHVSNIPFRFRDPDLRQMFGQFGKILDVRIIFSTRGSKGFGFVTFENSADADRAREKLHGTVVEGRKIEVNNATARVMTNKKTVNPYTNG

B1: UGGUGGU (DNA:RNA)
RNA: GGGAGACCGGAAUUCAGAUUGUCCUGGUGGUUUAAAUCCCGUCGUAGCCACCA
DNA 1: CAATCTGAATTCCGGTCTCCC
DNA 2: TGGTGGCTACGACGGGATT
B2: UGGAUGU (DNA:RNA)
RNA: B1 RNA with U28A, G29U
DNA 1: CAATCTGAATTCCGGTCTCCC
DNA 2: TGGTGGCTACGACGGGATT
B3: AUACCAA (DNA:RNA)
RNA: GGGAGACCGGAAUUCAGAUUGUCCAUACCAAUUAAAUCCCGUCGUAGCCACCA
DNA 1: CAATCTGAATTCCGGTCTCCC
DNA 2: TGGTGGCTACGACGGGATT
B4: ACUAGAG (DNA:RNA)
RNA: B3 RNA with U26C, A27U, C28A, C29G, A31G
DNA 1: CAATCTGAATTCCGGTCTCCC
DNA 2: TGGTGGCTACGACGGGATT
B5: CCCACAA (DNA:RNA)
RNA: B3 RNA with A25C, U26C, A27C, C28A
DNA 1: CAATCTGAATTCCGGTCTCCC
DNA 2: TGGTGGCTACGACGGGATT
B6: ACGCCUC (DNA:RNA)
RNA: B3 RNA with U26C, A27G, A30U, A31C
DNA 1: CAATCTGAATTCCGGTCTCCC
DNA 2: TGGTGGCTACGACGGGATT
B7: AGUUGGG (DNA:RNA)
RNA: B1 RNA with U25A, G27U, U31G
DNA 1: CAATCTGAATTCCGGTCTCCC
DNA 2: TGGTGGCTACGACGGGATT
B8: AAUGUGU (DNA:RNA)
RNA: B1 RNA with U25A, G26A, G27U, U28G, G29U
DNA 1: CAATCTGAATTCCGGTCTCCC
DNA 2: TGGTGGCTACGACGGGATT
B9: GGGAGCA (DNA:RNA)
RNA: B1 RNA with U25G, U28A, G30C, U31A
DNA 1: CAATCTGAATTCCGGTCTCCC
DNA 2: TGGTGGCTACGACGGGATT
B10: AUCCCUG (DNA:RNA)
RNA: B3 RNA with A27C, A30U, A31G
DNA 1: CAATCTGAATTCCGGTCTCCC
DNA 2: TGGTGGCTACGACGGGATT
B11: CGGGGUC (DNA:RNA)
RNA: B1 RNA with U25C, U28G, G30U, U31C
DNA 1: CAATCTGAATTCCGGTCTCCC
DNA 2: TGGTGGCTACGACGGGATT
B12: GGGUGUU (DNA:RNA)
RNA: B1 RNA with U25G, G30U
DNA 1: CAATCTGAATTCCGGTCTCCC
DNA 2: TGGTGGCTACGACGGGATT
B13: AGGAACU (DNA:RNA)
RNA: B1 RNA with U25A, U28A, G29A, G30C
DNA 1: CAATCTGAATTCCGGTCTCCC
DNA 2: TGGTGGCTACGACGGGATT
B14: UGCCAUC (DNA:RNA)
RNA: B1 RNA with G27C, U28C, G29A, G30U, U31C
DNA 1: CAATCTGAATTCCGGTCTCCC
DNA 2: TGGTGGCTACGACGGGATT
B15: AGGGGCG (DNA:RNA)
RNA: B1 RNA with U25A, U28G, G30C, U31G
DNA 1: CAATCTGAATTCCGGTCTCCC
DNA 2: TGGTGGCTACGACGGGATT
B16: UUAAUGC (DNA:RNA)
RNA: B3 RNA with A25U, C28A, C29U, A30G, A31C
DNA 1: CAATCTGAATTCCGGTCTCCC
DNA 2: TGGTGGCTACGACGGGATT
B17: GAAUUAU (DNA:RNA)
RNA: B3 RNA with A25G, U26A, C28U, C29U, A31U
DNA 1: CAATCTGAATTCCGGTCTCCC
DNA 2: TGGTGGCTACGACGGGATT
B18: CUACGAU (DNA:RNA)
RNA: B3 RNA with A25C, C29G, A31U
DNA 1: CAATCTGAATTCCGGTCTCCC
DNA 2: TGGTGGCTACGACGGGATT
B19: GUACCGU (DNA:RNA)
RNA: B3 RNA with A25G, A30G, A31U
DNA 1: CAATCTGAATTCCGGTCTCCC
DNA 2: TGGTGGCTACGACGGGATT
B20: GAAUAGA (DNA:RNA)
RNA: B3 RNA with A25G, U26A, C28U, C29A, A30G
DNA 1: CAATCTGAATTCCGGTCTCCC
DNA 2: TGGTGGCTACGACGGGATT
B21: GAUCCCA (DNA:RNA)
RNA: B3 RNA with A25G, U26A, A27U, A30C
DNA 1: CAATCTGAATTCCGGTCTCCC
DNA 2: TGGTGGCTACGACGGGATT
B22: GCUAGGU (DNA:RNA)
RNA: B1 RNA with U25G, G26C, G27U, U28A
DNA 1: CAATCTGAATTCCGGTCTCCC
DNA 2: TGGTGGCTACGACGGGATT
B23: ACUAAUC (DNA:RNA)
RNA: B3 RNA with U26C, A27U, C28A, C29A, A30U, A31C
DNA 1: CAATCTGAATTCCGGTCTCCC
DNA 2: TGGTGGCTACGACGGGATT
B24: GCCUCGC (DNA:RNA)
RNA: B1 RNA with U25G, G26C, G27C, G29C, U31C
DNA 1: CAATCTGAATTCCGGTCTCCC
DNA 2: TGGTGGCTACGACGGGATT
B25: GUUCGCC (DNA:RNA)
RNA: B3 RNA with A25G, A27U, C29G, A30C, A31C
DNA 1: CAATCTGAATTCCGGTCTCCC
DNA 2: TGGTGGCTACGACGGGATT
B26: UGCGCCU (DNA:RNA)
RNA: B1 RNA with G27C, U28G, G29C, G30C
DNA 1: CAATCTGAATTCCGGTCTCCC
DNA 2: TGGTGGCTACGACGGGATT
B27: ACUAUAU (DNA:RNA)
RNA: B3 RNA with U26C, A27U, C28A, C29U, A31U
DNA 1: CAATCTGAATTCCGGTCTCCC
DNA 2: TGGTGGCTACGACGGGATT
B28: AGCCGAU (DNA:RNA)
RNA: B3 RNA with U26G, A27C, C29G, A31U
DNA 1: CAATCTGAATTCCGGTCTCCC
DNA 2: TGGTGGCTACGACGGGATT
B29: AAUUACU (DNA:RNA)
RNA: B1 RNA with U25A, G26A, G27U, G29A, G30C
DNA 1: CAATCTGAATTCCGGTCTCCC
DNA 2: TGGTGGCTACGACGGGATT
B30: GUUAACU (DNA:RNA)
RNA: B3 RNA with A25G, A27U, C28A, C29A, A30C, A31U
DNA 1: CAATCTGAATTCCGGTCTCCC
DNA 2: TGGTGGCTACGACGGGATT
B31: UUAGACC (DNA:RNA)
RNA: B3 RNA with A25U, C28G, C29A, A30C, A31C
DNA 1: CAATCTGAATTCCGGTCTCCC
DNA 2: TGGTGGCTACGACGGGATT

target: T1, RBFOX1 RRM RbFoxmut (Fox-RRM*); test: EMSA; HiTS-Eq, 1 nM pool, 10 min; buffer printed only for the single-RNA assays: 10 mM Tris pH 7.5, 150 mM NaCl, 3.4 mM EDTA, 0.001% NP-40, 30 C; conditions: tags: His6 N-terminal (pET28a); label: 5' 32P
Method in brief: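 Relative association constants, normalised to the cognate motif, were derived by comparing read counts of each RNA species with those of the control reaction. The RNA sequenced was the free fraction, separated by 8% native PAGE after a 10 min equilibration in 50 µL of 1 nM 5′-radiolabelled RNA (7 randomized nucleotides) with increasing concentrations of purified wild-type or mutant RbFox RRM.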

Binder	binding signal
B1	0.161 KA relative to UGCAUGU
B2	0.756 KA relative to UGCAUGU
B3	0.0869 KA relative to UGCAUGU
B4	0.128 KA relative to UGCAUGU
B5	0.0417 KA relative to UGCAUGU
B6	0.0387 KA relative to UGCAUGU
B7	0.0708 KA relative to UGCAUGU
B8	0.135 KA relative to UGCAUGU
B9	0.109 KA relative to UGCAUGU
B10	0.0776 KA relative to UGCAUGU
B11	0.204 KA relative to UGCAUGU
B12	0.153 KA relative to UGCAUGU
B13	0.0868 KA relative to UGCAUGU
B14	0.208 KA relative to UGCAUGU
B15	0.18 KA relative to UGCAUGU
B16	0.118 KA relative to UGCAUGU

Binder	binding signal
B17	0.115 KA relative to UGCAUGU
B18	0.0551 KA relative to UGCAUGU
B19	0.12 KA relative to UGCAUGU
B20	0.121 KA relative to UGCAUGU
B21	0.0816 KA relative to UGCAUGU
B22	0.127 KA relative to UGCAUGU
B23	0.0671 KA relative to UGCAUGU
B24	0.156 KA relative to UGCAUGU
B25	0.134 KA relative to UGCAUGU
B26	0.0952 KA relative to UGCAUGU
B27	0.123 KA relative to UGCAUGU
B28	0.087 KA relative to UGCAUGU
B29	0.111 KA relative to UGCAUGU
B30	0.0977 KA relative to UGCAUGU
B31	0.0636 KA relative to UGCAUGU
